# Laboratory results published in a collection of fitness landscapes (doi:10.1016/j.celrep.2020.107928).
# The full ranking holds about 81,000 sequences; the median of “one-hybrid fitness for binding parS DNA” is about -0.17, and the highest 2% start at about 0.51. Some of the results follow.
# B1: Caulobacter ParB omega fusion; a variant is named by its letters at X, in order, B8GW30 (parent)
# chain: MESVVVGEPGMSEGRRGLGRGLSALLGEVDAAPAQAPGEQLGGSREAPIEILQRNPDQPRRTFREEDLEDLSNSIREKGVLQPILVRPSPDTAGEYQIVAGERAWRAAQRAGLKTVPIMVRELDDLAVLEIGIIENVQRADLNVLEEALSYKVLMEKFERTQENIAQTIGKSXSHVANXMRLLXLPDEVQSYLVSGELTAXHARAIAAAADPVALAKQIIEGGLSVRETEALARKAPNLSAGKSKGGRPPRVKDTDTQALESDLSSVLGLDVSIDHRGSTGTLTITYATLEQLDDLCNRLTRGI
# Variants of: B1
# Assay: one-hybrid fitness for binding parS DNA (scaled: cognate 1, non-cognate 0); higher = stronger binding
# Settings: with parS DNA site
# Summary of the method: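 Selection: bacterial one-hybrid in E. coli USO, HIS3 reporter with the site 19 bp from the promoter, 48 hours at 37°C on M9-minus-histidine plus 0.1 mM IPTG and 5 mM 3-AT. Libraries were Caulobacter ParB with four randomised specificity codons, sequenced on Illumina before and after selection. Fitness is the rescaled log change in variant-to-wild-type read ratio, anchored to the cognate and non-cognate sites.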
row,Variant,one-hybrid fitness for binding parS DNA
1,PYMY,≤ 0.2
2,ADKG,≤ 0.2
3,VRKL,≤ 0.2
4,AHIW,≤ 0.2
5,QLDD,≤ 0.2
6,VWRA,≤ 0.2
7,ILLF,≤ 0.2
8,GHYF,≤ 0.2
9,SYTM,≤ 0.2
10,KRAF,≤ 0.2
11,YLQT,≤ 0.2
12,RFVW,≤ 0.2
13,KEPE,≤ 0.2
14,NHTG,≤ 0.2
15,LPRL,≤ 0.2
16,HVIE,≤ 0.2
17,VECA,≤ 0.2
18,PVQL,≤ 0.2
19,VLRC,≤ 0.2
20,KSRM,≤ 0.2
21,RLES,1
22,PTTW,≤ 0.2
23,RTFT,0.911
24,QAKA,≤ 0.2
25,SCGP,≤ 0.2

row,Variant,one-hybrid fitness for binding parS DNA
1,SAEA,≤ 0.2
2,SWLG,≤ 0.2
3,QYIM,≤ 0.2
4,NCYT,≤ 0.2
5,MAHG,≤ 0.2
6,YLTT,≤ 0.2
7,REFC,≤ 0.2
8,LYLC,≤ 0.2
9,PEGR,≤ 0.2
10,QPTY,≤ 0.2
11,GTPY,≤ 0.2
12,SGLC,≤ 0.2
13,HPSD,≤ 0.2
14,DRSC,≤ 0.2
15,VGKR,≤ 0.2
16,SRAC,≤ 0.2
17,PNDV,≤ 0.2
18,RDID,≤ 0.2
19,GHES,≤ 0.2
20,EQPR,≤ 0.2
21,KRTP,≤ 0.2
22,RLHM,0.321
23,EVCC,≤ 0.2
24,RMMP,≤ 0.2
25,DFPN,≤ 0.2

row,Variant,one-hybrid fitness for binding parS DNA
1,QSKR,≤ 0.2
2,PRVM,≤ 0.2
3,VLDC,≤ 0.2
4,HRTV,≤ 0.2
5,ERLP,≤ 0.2
6,HAKA,≤ 0.2
7,SAIV,≤ 0.2
8,QWFS,≤ 0.2
9,FSYR,≤ 0.2
10,MNSG,≤ 0.2
11,QNPH,≤ 0.2
12,CRHC,≤ 0.2
13,REFQ,≤ 0.2
14,PIRM,≤ 0.2
15,VDFG,≤ 0.2
16,PCMD,≤ 0.2
17,PDPA,≤ 0.2
18,LSGP,≤ 0.2
19,YCLT,≤ 0.2
20,RPPC,≤ 0.2
21,KSGF,≤ 0.2
22,DVRK,≤ 0.2
23,HIVS,≤ 0.2
24,SRWG,≤ 0.2
25,VDGT,≤ 0.2

row,Variant,one-hybrid fitness for binding parS DNA
1,NQYV,≤ 0.2
2,TRHY,≤ 0.2
3,QARA,≤ 0.2
4,MCPG,≤ 0.2
5,QKDD,≤ 0.2
6,HFCS,≤ 0.2
7,GENS,≤ 0.2
8,HLYR,≤ 0.2
9,GEIG,≤ 0.2
10,TSQF,≤ 0.2
11,HMAF,≤ 0.2
12,VDFY,≤ 0.2
13,VMCR,≤ 0.2
14,WDDV,≤ 0.2
15,EYPG,≤ 0.2
16,WQTT,≤ 0.2
17,QLMP,≤ 0.2
18,EPGC,≤ 0.2
19,EMIV,≤ 0.2
20,RFVR,≤ 0.2
21,TRKP,≤ 0.2
22,WLAC,≤ 0.2
23,PRIC,≤ 0.2
